# Results: PubChem BioAssay AID651820 (National Center for Advancing Translational Sciences (NCATS), 2012)
# Hit rate of the full screen: of about 340,000 compounds, about 12,000 (3.5%) were called active. The inconclusive results got no clear call from the source; some entries with a clear call stand among them for comparison. Calls come from the whole dose curve; as a rule, active = well fitted inhibition curve with a large enough effect; inconclusive = small, poorly fitted or top-dose-only effect, or another doubt; inactive = no such curve, though single readings can be large or run the other way. Potencies of inconclusive entries are left out as doubtful fits.
# Experiment: qHTS Assay for Inhibitors of Hepatitis C Virus (HCV)
# Conditions: Huh7.5.1 HCVcc-Cre (HCVcc is cell-culture hepatitis C virus) infection, luciferase reporter, 44 h; series mostly up to 41.8 µM
# Summary of the method: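 Reporter virus HCVcc-Cre (~0.5 moi) infects cells exposed to compound; seeding density 1,000 cells/well with 4 h settling beforehand. Luminescence, 15 sec read, taken 44 h post-infection following a 15 min RT substrate incubation.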
# Potency is the fitted concentration of half-maximal effect; tags give direction and shape of the fitted curve.
row,SMILES,Potency
1,COc1ccc(Cl)cc1NC(=O)CN1c2ccccc2CC1C (configuration not stated),active: 8.91 µM
2,COc1ccc(C(=O)NNC(=O)CN2CCC(n3nnc4cc(C)ccc43)CC2)cc1,inactive
3,COCOc1ccc(-c2cc(=O)c3c(OCOC)cc(OCOC)cc3o2)cc1,"inconclusive [inhibitor, single point]"
4,CN(CC=CCN(C)P(=S)(N1CC1)N1CC1)P(=S)(N1CC1)N1CC1,"inconclusive [inhibitor, single point]"
5,O=C(Nc1nc(=O)c2ccccc2s1)c1ccccc1,inactive
6,COc1ccc(/C=C/C(=O)Nc2ccccc2C(=O)NCC(c2ccc(OC)cc2)N(C)C)cc1 (configuration not stated),"inconclusive [inhibitor, single point]"
7,NC(=O)C1CCN(c2nc3ccccc3nc2NS(=O)(=O)c2ccc(Br)cc2)CC1,"inconclusive [inhibitor, single point]"
8,Cc1c(Cc2ccccc2)sc(NC(=O)c2ccco2)c1C(N)=O,"inconclusive [inhibitor, partial curve, poor fit]"
9,COC(=O)c1cc(S(=O)(=O)N2CCCCC2C)c[nH]1 (configuration not stated),"inconclusive [inhibitor, single point]"
10,Cc1ccc(Cc2c(C)nc3nc(SCC(=O)NCCCN4CCOCC4)nn3c2C)cc1,inactive
11,COc1ccccc1CC(=O)Nc1ccc(S(=O)(=O)N2CCOCC2)cc1,"inconclusive [inhibitor, single point]"
12,O=C1c2ccccc2C(=O)N1CCCCN(C(=O)c1ccc([N+](=O)[O-])cc1)c1ccc(Cl)cc1,"inconclusive [inhibitor, single point]"
13,O=C(c1ccc2c(=O)n(Cc3ccc4c(c3)OCO4)c(=S)[nH]c2c1)N1CCC2(CC1)OCCO2,"inconclusive [inhibitor, single point]"
14,COc1cc(/C=N/NC(=O)c2ccc(O)cc2)ccc1OCC(=O)Nc1cccc([N+](=O)[O-])c1,"inconclusive [inhibitor, single point]"
15,CC1=C(C(=O)OC(C)C)C(c2ccc(N(C)C)cc2)C2=C(CC(C)(C)CC2=O)N1 (configuration not stated),"inconclusive [inhibitor, single point]"
16,O=C(NCCS(=O)(=O)N1CCN(c2cccc(Cl)c2)CC1)c1cc(=O)c2ccccc2o1,"inconclusive [inhibitor, single point]"
17,O=C(COC(=O)/C=C/c1cccs1)Nc1nc(-c2cccc(Br)c2)cs1,"inconclusive [inhibitor, single point]"
